# Test results from paper PMC7694937.
# Amino acid sequences for entries named in this document (tags omitted).
# UniProt P49023: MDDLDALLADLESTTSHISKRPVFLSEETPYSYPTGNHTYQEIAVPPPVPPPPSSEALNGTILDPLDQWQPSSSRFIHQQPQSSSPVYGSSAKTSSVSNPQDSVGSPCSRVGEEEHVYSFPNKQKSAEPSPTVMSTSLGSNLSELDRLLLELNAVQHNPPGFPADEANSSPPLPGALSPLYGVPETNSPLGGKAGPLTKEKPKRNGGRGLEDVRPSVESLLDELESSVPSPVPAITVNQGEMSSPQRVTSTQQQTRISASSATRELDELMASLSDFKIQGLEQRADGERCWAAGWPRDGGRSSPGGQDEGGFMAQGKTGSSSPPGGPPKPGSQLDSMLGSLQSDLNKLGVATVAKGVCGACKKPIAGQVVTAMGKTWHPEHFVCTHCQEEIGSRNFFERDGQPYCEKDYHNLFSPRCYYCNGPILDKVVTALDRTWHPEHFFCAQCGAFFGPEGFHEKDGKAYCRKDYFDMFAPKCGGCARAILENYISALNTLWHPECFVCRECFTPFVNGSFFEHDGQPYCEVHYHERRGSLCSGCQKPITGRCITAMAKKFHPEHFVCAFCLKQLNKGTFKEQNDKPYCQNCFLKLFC
# These are yes or no findings as the source states them, for the method shown. In cells and extracts the contact can be indirect. Some results given as binding are weak or reduced against the parent protein; the word gives no strength. Where a sequence is shown, tags or fusion partners need not be part of it.
# Key:
# Assay in all cases: co-IP; HEK293T cells co-transfected with Flag- and HA-tagged plasmids; lysis in 50 mM Tris-HCl pH 7.5, 300 mM NaCl, 1% Triton-X, 5 mM EDTA, 10% glycerol; IP with anti-Flag antibody and Protein-G Sepharose, immunoblot with anti-HA and anti-Flag; in some panels cells treated with DMSO or ATP (5 mM) for 2 h; Fig. 6d-g shown as pairs of IPs whose antibodies the legend does not name
# Flag-P2X7R(30–595) = molecular target: T1, Flag-P2X7R(30–595) (UniProt Q99572)
# T1 sequence: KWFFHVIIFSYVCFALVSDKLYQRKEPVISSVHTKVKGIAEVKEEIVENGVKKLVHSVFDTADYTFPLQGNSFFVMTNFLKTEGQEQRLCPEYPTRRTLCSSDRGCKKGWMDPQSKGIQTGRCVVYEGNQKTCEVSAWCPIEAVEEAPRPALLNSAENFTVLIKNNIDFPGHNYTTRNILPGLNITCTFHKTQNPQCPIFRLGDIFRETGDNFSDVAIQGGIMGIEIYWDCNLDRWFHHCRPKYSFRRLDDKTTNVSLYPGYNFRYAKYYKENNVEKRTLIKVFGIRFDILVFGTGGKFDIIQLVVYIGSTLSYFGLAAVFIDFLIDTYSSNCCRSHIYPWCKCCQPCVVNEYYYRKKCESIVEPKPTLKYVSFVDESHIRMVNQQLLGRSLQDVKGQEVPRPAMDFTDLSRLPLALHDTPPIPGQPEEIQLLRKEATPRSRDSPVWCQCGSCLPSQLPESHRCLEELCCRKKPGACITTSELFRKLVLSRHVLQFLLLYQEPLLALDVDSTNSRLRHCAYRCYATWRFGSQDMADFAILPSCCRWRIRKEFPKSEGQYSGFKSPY
# [1] = molecular target: T2, Flag-USP13(1–300) (human) (UniProt Q92995)
# T2 sequence: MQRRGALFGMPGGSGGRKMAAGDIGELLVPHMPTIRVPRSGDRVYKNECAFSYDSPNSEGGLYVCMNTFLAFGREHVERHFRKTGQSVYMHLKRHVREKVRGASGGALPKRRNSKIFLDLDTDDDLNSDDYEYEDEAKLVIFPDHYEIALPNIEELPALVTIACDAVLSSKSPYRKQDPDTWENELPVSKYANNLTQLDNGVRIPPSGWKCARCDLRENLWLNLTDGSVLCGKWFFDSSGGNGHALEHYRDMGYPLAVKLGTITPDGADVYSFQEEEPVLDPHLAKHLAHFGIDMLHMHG
# Flag-P2X7R = molecular target: T3, Flag-P2X7R (UniProt Q99572)
# T3 sequence: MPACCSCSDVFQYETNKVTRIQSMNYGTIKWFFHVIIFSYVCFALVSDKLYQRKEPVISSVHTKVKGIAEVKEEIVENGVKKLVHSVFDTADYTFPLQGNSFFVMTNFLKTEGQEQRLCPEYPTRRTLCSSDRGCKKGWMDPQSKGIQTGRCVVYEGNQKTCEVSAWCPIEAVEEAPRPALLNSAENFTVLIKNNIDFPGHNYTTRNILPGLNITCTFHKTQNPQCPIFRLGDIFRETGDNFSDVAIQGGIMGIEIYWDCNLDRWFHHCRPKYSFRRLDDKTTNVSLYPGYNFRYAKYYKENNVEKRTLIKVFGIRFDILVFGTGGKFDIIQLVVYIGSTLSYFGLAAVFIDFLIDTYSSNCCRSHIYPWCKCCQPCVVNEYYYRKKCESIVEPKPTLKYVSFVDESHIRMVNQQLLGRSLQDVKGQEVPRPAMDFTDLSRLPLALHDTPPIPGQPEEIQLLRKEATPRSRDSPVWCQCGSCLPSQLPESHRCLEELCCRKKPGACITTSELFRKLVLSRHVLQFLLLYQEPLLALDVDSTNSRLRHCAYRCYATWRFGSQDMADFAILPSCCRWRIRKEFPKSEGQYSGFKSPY
# Flag-P2X7R(356–595) = molecular target: T4, Flag-P2X7R(356–595) (UniProt Q99572)
# T4 sequence: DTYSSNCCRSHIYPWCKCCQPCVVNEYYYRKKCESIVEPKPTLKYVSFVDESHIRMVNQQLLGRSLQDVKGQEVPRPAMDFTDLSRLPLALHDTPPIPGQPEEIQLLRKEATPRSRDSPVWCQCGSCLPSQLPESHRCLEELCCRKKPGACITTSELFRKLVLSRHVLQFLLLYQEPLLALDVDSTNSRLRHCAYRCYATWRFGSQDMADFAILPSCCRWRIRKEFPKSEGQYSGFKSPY
# Flag-P2X7R(335–595) = molecular target: T5, Flag-P2X7R(335–595) (UniProt Q99572)
# T5 sequence: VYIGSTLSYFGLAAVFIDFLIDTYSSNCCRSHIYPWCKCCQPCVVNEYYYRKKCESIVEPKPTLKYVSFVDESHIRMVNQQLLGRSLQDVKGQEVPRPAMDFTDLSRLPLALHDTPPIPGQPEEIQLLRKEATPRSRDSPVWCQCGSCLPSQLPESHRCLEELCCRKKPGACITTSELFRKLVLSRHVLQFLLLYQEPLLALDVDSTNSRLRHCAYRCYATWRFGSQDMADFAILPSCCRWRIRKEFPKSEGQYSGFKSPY
substance,measurement,setting,value
HA-Paxillin (from UniProt P49023 1-591),binding,Flag-P2X7R(30–595),binds
same,binding,[1],binds
same,binding,Flag-P2X7R,binds
same,binding,Flag-P2X7R(356–595),no binding
same,binding,Flag-P2X7R(335–595),no binding
